Structures can show the parent of a compound that is named as a salt. The list shows a part of the results.

This test concerns Schistosoma mansoni schistosomula. The test can be described thus: phenotypic hit in primary schistosomula screen (any phenotype vs DMSO control) (binary (1 = hit, 0 = no phenotype)); higher = active (phenotype induced). To be noted: 1 µM; time (d): 7.
Regarding `CCN1C[C@]2(C)CC[C@H](OC)[C@@]34C1[C@]1(OCO[C@@]15C[C@H](OC)[C@H]1C[C@]3(O)[C@@H]5[C@H]1OC)[C@@H](OC(C)=O)[C@H]24` [deltaline], the phenotypic hit is inactive: 0.

In the case of `CC(C)=CCOc1c2occc2cc2ccc(=O)oc12` [imperatorin], the phenotypic hit was inactive: 0.

For `N[C@@H](Cc1ccc(N(CCCl)CCCl)cc1)C(=O)O` [melphalan], the phenotypic hit is inactive: 0.

In the case of `COC(=O)/C(C)=C\CC12OC(C)(C)C3CC(C=C4C(=O)c5c(OC)c6c(c(CC=C(C)C)c5OC431)OC(C)(CCC=C(C)C)C=C6)C2=O` (stereo not given) [dimethyl gambogate], the phenotypic hit was active: 1.

Consider `CC(C)N(CCC(C(N)=O)(c1ccccc1)c1ccccn1)C(C)C` (stereo not given) [Disopyramide phosphate], for which the phenotypic hit is inactive: 0.

In the case of `COP(N)(=O)SC` (stereo not given) [methamidophos], the phenotypic hit was inactive: 0.

For the compound `CC[C@@]1(O)C[C@H](O[C@H]2C[C@H](N(C)C)[C@H](O)[C@H](C)O2)c2c(cc3c(c2O)C(=O)c2c(O)cccc2C3=O)[C@H]1C(=O)OC` [aklavine hydrochloride], the phenotypic hit was active: 1.

Take `C[C@H](N)[C@H](O)c1ccc(O)c(O)c1` [levonordefrin]: the phenotypic hit is inactive: 0.

Take `CN1[C@@H]2CC[C@H]1C[C@@H](OC(=O)[C@H](CO)c1ccccc1)C2` [hyoscyamine]: the phenotypic hit was inactive: 0.

With `CCOP(=S)(OCC)SCSP(=S)(OCC)OCC` [ethion], the phenotypic hit is inactive: 0.

`ClC1=C(Cl)C2(Cl)C3C(Cl)C(Cl)CC3C1(Cl)C2(Cl)Cl` (stereo not given) [chlordane]: the phenotypic hit is inactive: 0.

For the compound `CNC(=O)O/N=C/C(C)(C)SC` [aldicarb], the phenotypic hit is inactive: 0.

Regarding `O=[N+]([O-])c1cc(O)c(O)c([N+](=O)[O-])c1` [3,5-Dinitrocatechol], the phenotypic hit was inactive: 0.

Regarding `COc1cc2c(cc1OC)C(=O)c1ccc(OC)c(OC)c1OCC(=O)C2` [haematoxylone, tetramethyl-], the phenotypic hit was inactive: 0.

On to `Cc1cc(O)ccc1Cl` [chlorocresol], for which the phenotypic hit is inactive: 0.

`CCCN(CCC)c1c([N+](=O)[O-])cc(C(F)(F)F)cc1[N+](=O)[O-]` [trifluralin]: the phenotypic hit was inactive: 0.

As to `CC(=O)O[C@H]1C[C@@H](OC(C)=O)C(C)(C)C2C[C@@H](OC(C)=O)[C@]3(C)C(CC[C@@]4(C)[C@H](c5ccoc5)C(=O)[C@H]5O[C@]543)[C@]21C` (stereo not given in full) [khayanthone], the phenotypic hit was inactive: 0.

On to `C=C(C)[C@H]1CN[C@H](C(=O)O)[C@H]1CC(=O)O` [kainic acid], for which the phenotypic hit was inactive: 0.

On to `CC(C)N(C(=O)CCl)c1ccccc1` [propachlor], for which the phenotypic hit is inactive: 0.

Take `C[C@@H]1CC[C@@]2(OC1)O[C@H]1[C@@H](O)[C@H]3[C@@H]4CC[C@H]5C[C@@H](O[C@@H]6O[C@H](CO)[C@H](O[C@@H]7O[C@H](CO)[C@@H](O)[C@H](O[C@@H]8OC[C@@H](O)[C@H](O)[C@H]8O)[C@H]7O[C@@H]7O[C@H](CO)[C@H](O)[C@H](O[C@@H]8O[C@H](CO)[C@@H](O)[C@H](O)[C@H]8O)[C@H]7O)[C@H](O)[C@H]6O)[C@H](O)C[C@]5(C)[C@H]4CC[C@]3(C)[C@H]1[C@@H]2C` [digitonin]: the phenotypic hit is active: 1.

Consider `CC(C)=CCCC1(C)C=Cc2c(O)c3c(c(CC=C(C)C)c2O1)OC12C(CC4CC1C(C)(C)OC2(C/C=C(/C)C(=O)O)C4O)C3=O` (stereo not given) [tetrahydrogambogic acid], for which the phenotypic hit was inactive: 0.

With `CC[C@H]1CN2CC[C@H]1C[C@@H]2[C@@H](O)c1ccnc2ccc(OC)cc12` [hydroquinidine], the phenotypic hit was inactive: 0.

Take `C=C[C@H]1CN2CC[C@H]1C[C@H]2[C@H](OC(=O)OCC)c1ccnc2ccc(OC)cc12` [quinine ethyl carbonate]: the phenotypic hit is inactive: 0.

As to `CC(=O)Oc1c2c(c(CC=C(C)C)c3c1C(=O)C1=C[C@@H]4CC5C(C)(C)OC(C/C=C(\C)C(=O)O)(C4=O)[C@@]15O3)OC(C)(CCC=C(C)C)C=C2` (stereo not given in full) [acetyl isogambogic acid], the phenotypic hit is active: 1.

With `N#C/C(=C\c1cccc(O)c1)C(=O)O` [alpha-cyano-3-hydroxycinnamic acid], the phenotypic hit was inactive: 0.

In the case of `O=C([O-])c1ccccc1-c1c2cc(Br)c(=O)cc-2oc2[c]([Hg+])c([O-])c(Br)cc12.[Na+].[Na+].[OH-]` [merbromin], the phenotypic hit is inactive: 0.

`CC(=O)O[C@@H]1C[C@@]2(C)[C@H](c3ccoc3)C[C@H]3O[C@]32[C@]2(C)C(=O)C(O)=C3C(C)(C)C(=O)C=C[C@]3(C)[C@@H]12` [anthothecol]: the phenotypic hit was inactive: 0.

In the case of `O=c1[nH]c2ccccc2n1CCCN1CCC(n2c(=O)[nH]c3cc(Cl)ccc32)CC1` [Domperidone], the phenotypic hit is inactive: 0.

With `COP(=S)(OC)Oc1ccc(SC)c(C)c1` [fenthion], the phenotypic hit is inactive: 0.

As to `COP(=S)(OC)SCn1nnc2ccccc2c1=O` [azinphos methyl], the phenotypic hit was inactive: 0.

Take `C#C[C@]1(O)CC[C@H]2[C@@H]3CCC4=CC(=O)CC[C@]4(C)[C@H]3CC[C@@]21C` [ethisterone]: the phenotypic hit is inactive: 0.

For the compound `CC(C)[N+](C)(CCC(C(N)=O)(c1ccccc1)c1ccccc1)C(C)C` [isopropamide iodide], the phenotypic hit is inactive: 0.

Take `CC(C)CC(N(C)C)C1(c2ccc(Cl)cc2)CCC1` (stereo not given) [sibutramine hydrochloride]: the phenotypic hit was inactive: 0.

As to `COc1ccc(CC2c3cc(OC)c(OC)cc3CCN2C)cc1OC` (stereo not given) [laudanosine], the phenotypic hit is inactive: 0.

`NC(N)=NOCC[C@H](N)C(=O)O` [canavanine]: the phenotypic hit was inactive: 0.

For `COC(=O)COc1ccc(Cl)cc1Cl` [2,4-dichlorophenoxyacetic acid, methyl ester], the phenotypic hit is inactive: 0.

Turning to `C[C@]12CC[C@H]3[C@@H](CC[C@]4(O)C[C@@H](O)CC[C@]34C=O)[C@@]1(O)CC[C@@H]2C1=CC(=O)OC1` [strophanthidin], the phenotypic hit was inactive: 0.

On to `COc1ccc2c(c1)[C@]13CCCC[C@@H]1[C@H](C2)N(C)CC3` [dextromethorphan hydrobromide], for which the phenotypic hit was inactive: 0.

With `CCC(C)C(=O)c1c(O)c(C)c2oc3c(C)c(O)c(C(=O)C(C)CC)c(O)c3c2c1O` (stereo not given) [rhodomyrtoxin b], the phenotypic hit is active: 1.

Take `C[C@H]1O[C@@H](O[C@H]2[C@@H](O)C[C@H](O[C@H]3[C@@H](O)C[C@H](O[C@H]4CC[C@@]5(C)[C@H](CC[C@@H]6[C@@H]5CC[C@]5(C)[C@@H](C7=CC(=O)OC7)[C@@H](O)C[C@]65O)C4)O[C@@H]3C)O[C@@H]2C)C[C@H](O)[C@@H]1O` [gitoxin]: the phenotypic hit was inactive: 0.

The values above are taken from the supplement of paper PMC2702839.
